# Reference: PubChem BioAssay AID1645852 (National Center for Advancing Translational Sciences (NCATS), 2021)
# The whole screen tested about 1,200 compounds, of which about 160 (13%) were called active. This list was built around the results that the source calls inconclusive (neither active nor inactive); the mix of calls is not that of the screen. Calls come from the whole dose curve; as a rule, active = well fitted inhibition curve with a large enough effect; inconclusive = small, poorly fitted or top-dose-only effect; inactive = no such curve, though single readings can be large or run the other way. Potencies of inconclusive entries are doubtful fits and often do not repeat.
# Biological target: Inositol hexakisphosphate kinase 1 (Homo sapiens) (UniProt Q92551)
# Chain of UniProt Q92551 (Q92551 whole entry, looked up): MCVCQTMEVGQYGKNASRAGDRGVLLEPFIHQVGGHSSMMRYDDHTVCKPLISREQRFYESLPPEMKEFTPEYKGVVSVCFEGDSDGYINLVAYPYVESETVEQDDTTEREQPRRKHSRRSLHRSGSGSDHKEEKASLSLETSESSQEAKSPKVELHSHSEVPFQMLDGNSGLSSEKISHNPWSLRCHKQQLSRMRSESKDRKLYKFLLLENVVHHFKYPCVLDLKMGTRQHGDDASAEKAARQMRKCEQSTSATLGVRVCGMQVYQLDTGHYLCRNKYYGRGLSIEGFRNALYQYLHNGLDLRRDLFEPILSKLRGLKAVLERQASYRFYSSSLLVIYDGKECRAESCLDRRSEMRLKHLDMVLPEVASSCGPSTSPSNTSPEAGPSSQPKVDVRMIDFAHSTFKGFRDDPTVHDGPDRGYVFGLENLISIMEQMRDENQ
# Assay: Confirmatory qHTS assay for small molecule inhibitors of Inositol hexaphosphate kinase 1 (IP6K1); note: nearly all actives have a fitted effect of over 65% in size
# Settings: recombinant IP6K1 kinase, ADP-Glo luminescence, 2 h; series mostly up to 49 µM
# In short: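 IP6K1 kinase activity was measured by ADP-Glo Max luminescence after 2 hr at room temperature. Substrates were added as a 1.3 mM ATP / 130 uM IP6 premix (pre-dilution), and compounds were tested.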
# Potency is the fitted concentration of half-maximal effect; tags give direction and shape of the fitted curve.
row,Structure (SMILES),Potency
1,Cc1ccn2c(Nc3ccc4c(c3)OCCO4)c(-c3cccs3)nc2c1,inactive
2,Cc1ccoc1C(=O)N1C[C@@H](CO)[C@H](c2ccccn2)C1,inactive
3,O=C(NCCCN1CCCCCC1)c1ccc2c(c1)sc1nc(-c3ccccc3)cn12,"inconclusive: 32.6 µM [inhibitor, partial curve, poor fit]"
4,c1ccc(C2=Nn3c(nnc3-c3ccncc3)SC2)cc1,inactive
5,CCC(=O)N1CCc2cc(OC)c(OC)cc2C1COc1ccc2c(C)cc(=O)oc2c1 (stereo not given),inactive
6,CCC(=O)Nc1cccc(-c2nc3cc(C)ccc3o2)c1,"inconclusive: 16.4 µM [inhibitor, partial curve]"
7,O=C(Cc1c[nH]c2ncc(-c3cccc(Cl)c3)cc12)NCc1cccnc1,"inconclusive: 29.8 µM [inhibitor, partial curve]"
8,Nc1nc(Nc2cccc(Cl)c2)sc1C(=O)c1ccc(F)cc1,inactive
9,CCS(=O)(=O)N1CC(CC#N)(n2cc(-c3ncnc4[nH]ccc34)cn2)C1,inactive
10,COc1cc(C(C)C)c(Oc2cnc(N)nc2N)cc1I,"inconclusive: 39.8 µM [inhibitor, partial curve]"
11,CCOC(=O)c1cc2c(=O)n3ccccc3nc2n(Cc2ccco2)c1=NC(=O)c1cccc(C)c1,"inconclusive: 0.0103 µM [inhibitor, full curve]"
12,Cc1cccc(Nc2sc(C(=O)c3ccc(Cl)cc3)c(N)c2C(N)=O)c1,inactive
13,CCCCOc1ccccc1C1CC(=O)Nc2cc(C)c(C)cc21 (stereo not given),inactive
14,Cc1ccccc1Nc1nc(N)c(C(=O)c2ccccc2Cl)s1,active: 3.26 µM
15,Cc1cc(C(C)Nc2ccccc2C(=O)O)c2nc(N3CCOCC3)cc(=O)n2c1 (stereo not given),inactive
16,Cc1c(C(=O)Nc2cccc(C(F)(F)F)c2)sc2nc[nH]c(=O)c12,"inconclusive: 8.2 µM [inhibitor, partial curve]"
17,CN(c1cc(=O)c2ccnc(Nc3ccc(F)c(Cl)c3)c2o1)C1CCOCC1,inactive
18,COc1ccc(-c2nc(-c3c(C)noc3C)cc3[nH]c(C)cc23)cn1,"inconclusive: 26.6 µM [inhibitor, partial curve]"
19,C/C=C(\C)C(=O)O[C@H]1[C@@H](O[C@]2(COC(=O)CC(C)C)O[C@H](COC(=O)C(C)C)[C@@H](OC(C)=O)[C@@H]2O)O[C@H](COC(C)=O)[C@@H](O)[C@@H]1O,"inconclusive: 3.85 µM [inhibitor, partial curve]"
20,COc1cccc(N2CCN(S(=O)(=O)c3ccc(-c4cnc(C5CC5)o4)cc3)CC2)c1,"inconclusive: 11.6 µM [inhibitor, partial curve, poor fit]"
21,CCOc1cccc(-c2nc3ccccc3c(=O)o2)c1,"inconclusive: 10.3 µM [inhibitor, partial curve]"
22,Cc1ccc(C(C(=O)N2CCC(Cc3noc(C)n3)CC2)N(C)C)cc1 (stereo not given),inactive
23,COc1ccc(OC)c(CNS(=O)(=O)c2cc(-c3onc(C)c3C)ccc2C)c1,inactive
24,COc1cc2ncnc(Nc3cccc(Br)c3)c2cc1OC,"inconclusive: 11.6 µM [inhibitor, partial curve]"

row,Structure (SMILES),Potency
1,O=Cc1cccc(-c2cccc(C(F)(F)F)c2)c1,"inconclusive: 29.8 µM [inhibitor, partial curve]"
2,COc1cc(-c2nc(-c3c(C)noc3C)cc3cc(CN(C)C)oc23)ccn1,"inconclusive: 14.9 µM [inhibitor, partial curve, poor fit]"
3,NC(=O)Cc1c[nH]c2ncc(-c3ccccc3F)cc12,"inconclusive: 44.7 µM [inhibitor, partial curve]"
4,O=C(NC1CC1)c1cc(-c2ccccc2F)cc2c1OCCN2Cc1cccnc1,"inconclusive: 37.5 µM [inhibitor, partial curve]"
5,Cc1ccc(S(=O)(=O)c2cnc(SCC(=O)Nc3ccc4c(c3)OCCO4)[nH]c2=O)cc1,"inconclusive: 18.4 µM [inhibitor, partial curve]"
6,O=C(Nc1cccc(OC(F)(F)F)c1)c1cc(-c2ccc[nH]2)n[nH]1,"inconclusive: 10.3 µM [inhibitor, partial curve]"
7,COc1ccc(-c2cc(C(=O)Oc3cccc(C)c3)c3cc(C)ccc3n2)cc1,inactive
8,N#Cc1ccc2ncnc(NCCc3ccccc3)c2c1,active: 10.3 µM
9,COc1cc([C@H]2Oc3cc([C@H]4Oc5cc(O)cc(O)c5C(=O)[C@@H]4O)ccc3O[C@@H]2CO)ccc1O,active: 7.31 µM
10,CNCC(=O)N1CCCC(N2CCN(Cc3ccc4c(c3)OCO4)CC2)C1 (stereo not given),inactive
11,COc1cccc(NC(=O)c2nnn(Cc3ccc(OC)c(Br)c3)c2N)c1,"inconclusive: 8.2 µM [inhibitor, partial curve]"
12,Cc1cccc(Cc2c(C)nc3nc(SCC(=O)NCc4ccc(F)cc4)nn3c2C)c1,"inconclusive: 18.4 µM [inhibitor, partial curve, poor fit]"
13,Cc1cccc(NC(=O)c2cc(-c3ccc[nH]3)n[nH]2)c1,"inconclusive: 7.31 µM [inhibitor, partial curve]"
14,O=C(Cc1[nH]nc2ccccc12)N[C@H](c1ccc2c(c1)CCO2)C1CC(O)C1 (stereo not given in full),inactive
15,Cc1ccc(-c2nc(S(=O)(=O)c3ccc(C)cc3)c(N3CCCCC3)o2)cc1,"inconclusive: 23.1 µM [inhibitor, single point]"
16,CCCCOC(=O)/C(C#N)=C/c1ccc(-c2ccc(Br)cc2)o1,inactive
17,CSc1ccc(/C=C/c2nc3ccccc3n2S(=O)(=O)c2ccc(F)c(C)c2)cc1,"inconclusive: 14.6 µM [inhibitor, partial curve]"
18,COc1cc(Nc2ccc([N+](=O)[O-])cc2C(=O)O)cc2ccccc12,"inconclusive: 10.3 µM [inhibitor, partial curve]"
19,COCc1cc(C)nc2sc3c(c12)NC(c1ccccc1C(=O)O)N(c1ccc(OC)cc1)C3=O (stereo not given),inactive
20,O=C(c1ccccc1)n1nc(-c2ccco2)nc1NCc1ccccc1Cl,inactive
21,O=c1cc(-c2ccccc2)oc2ccccc12,"inconclusive: 28.2 µM [inhibitor, partial curve]"
22,O=C(O)C1=CC(=C(c2ccc(O)c(C(=O)O)c2)c2ccc(O)c(C(=O)O)c2)C=CC1=O,active: 1.46 µM
23,CCc1cccc(NC(=O)c2cc(-c3ccc[nH]3)n[nH]2)c1,active: 9.2 µM
24,O=C(Nc1noc2ccccc12)c1ccc(F)cc1,"inconclusive: 18.4 µM [inhibitor, partial curve]"

row,Structure (SMILES),Potency
1,Cn1cc(CNc2ccc(-c3nc(-c4cccc(C(F)(F)F)c4)no3)cn2)cn1,"inconclusive: 13 µM [inhibitor, partial curve, poor fit]"
2,Cc1cccc(CN2CCc3nc(N4CCN(c5ccccn5)CC4)ncc3C2)c1,"inconclusive: 23.1 µM [inhibitor, single point]"
3,CC(C)CNC(=O)c1ccnc(-c2nnc3ccc(Nc4ccccc4)nn23)c1,"inconclusive: 4.21 µM [inhibitor, partial curve, poor fit]"
4,Cc1oc(-c2ccc(C(=O)NCc3ccc(N(C)C)cc3)cc2)nc1COc1ccccc1,inactive
5,CCOc1ccccc1CN1C(=O)c2ccccc2C1C(=O)NC1CCCCCC1 (stereo not given),inactive
6,C[S+](=O)([O-])c1cccc(NC(=O)Cc2c[nH]c3ncc(-c4ccccc4)cc23)c1,"inconclusive: 16.8 µM [inhibitor, partial curve, poor fit]"
7,NC(=O)Cc1c[nH]c2ncc(-c3ccccc3C(F)(F)F)cc12,"inconclusive: 21.1 µM [inhibitor, partial curve]"
8,Cc1ccc(-c2n[nH]c3c2C(c2ccccc2Cl)N(c2ccc(C(=O)O)cc2)C3=O)cc1 (stereo not given),inactive
9,N[C@@H](Cc1cc(I)c(O)c(I)c1)C(=O)O,inactive
10,Oc1ccc(NCc2ccc(OCc3ccccc3Cl)cc2)cc1,"inconclusive: 13 µM [inhibitor, partial curve]"
11,CNC(=O)c1ccc(NC(=O)c2nsc3ccccc23)cc1,"inconclusive: 23.1 µM [inhibitor, partial curve]"
12,CO/N=C(/C(=O)N[C@@H]1C(=O)N2C(C(=O)O)=C(CSC(=O)c3ccco3)CS[C@H]12)c1csc(N)n1,"inconclusive: 18.4 µM [inhibitor, partial curve, poor fit]"
13,Nc1nc(N)c(S(=O)(=O)c2ccccc2)c(Nc2ccc(Br)cc2)n1,"inconclusive: 18.4 µM [inhibitor, partial curve]"
14,CCOC(=O)c1ccccc1NC(=O)c1c(-c2ccccc2)noc1C,inactive
15,O=C1c2c(O)ccc(O)c2C(=O)c2c(NCCNCCO)ccc(NCCNCCO)c21,"inconclusive: 20.6 µM [inhibitor, partial curve]"
16,Cc1cc(C)c(CNC(=O)c2cc(-c3cccnc3)cc3c2OCCN3C)c(=O)[nH]1,inactive
17,CN(C)c1ccc(Nc2nc(N)n(C(=O)c3c(F)cccc3F)n2)cc1,active: 10.3 µM
18,CC(C)c1cc(C(C)C)c(CC(=O)NS(=O)(=O)Oc2c(C(C)C)cccc2C(C)C)c(C(C)C)c1,"inconclusive: 20.6 µM [inhibitor, single point]"
19,O=C(Nc1ccc(N2CCOCC2)c(C(=O)O)c1)c1ccc(Br)cc1,"inconclusive: 8.2 µM [inhibitor, partial curve]"
20,CC(C)C(=O)Nc1cccc(C(=O)Nc2nnc(C(F)(F)F)s2)c1,inactive
21,CCCCCCCCOc1ccccc1C(=O)Nc1ccc(C(=O)OCC[N+](C)(CC)CC)cc1,"inconclusive: 18.4 µM [inhibitor, partial curve]"
22,CCOc1ccccc1NC(=O)C1CCCN(S(=O)(=O)c2cn(C)cn2)C1 (stereo not given),inactive
